Substitutions are numbered along the chain they refer to. Names may count otherwise. No constants are given. Whether binding was seen depends on the method and setting. In cells and extracts the contact can be indirect. Some results given as binding are weak or reduced against the parent protein; the word gives no strength. Tags and fused reporters may be left off the sequences shown.
T1: HA-tagged wild-type human LATS1 (human) (UniProt O95835)
T1 sequence: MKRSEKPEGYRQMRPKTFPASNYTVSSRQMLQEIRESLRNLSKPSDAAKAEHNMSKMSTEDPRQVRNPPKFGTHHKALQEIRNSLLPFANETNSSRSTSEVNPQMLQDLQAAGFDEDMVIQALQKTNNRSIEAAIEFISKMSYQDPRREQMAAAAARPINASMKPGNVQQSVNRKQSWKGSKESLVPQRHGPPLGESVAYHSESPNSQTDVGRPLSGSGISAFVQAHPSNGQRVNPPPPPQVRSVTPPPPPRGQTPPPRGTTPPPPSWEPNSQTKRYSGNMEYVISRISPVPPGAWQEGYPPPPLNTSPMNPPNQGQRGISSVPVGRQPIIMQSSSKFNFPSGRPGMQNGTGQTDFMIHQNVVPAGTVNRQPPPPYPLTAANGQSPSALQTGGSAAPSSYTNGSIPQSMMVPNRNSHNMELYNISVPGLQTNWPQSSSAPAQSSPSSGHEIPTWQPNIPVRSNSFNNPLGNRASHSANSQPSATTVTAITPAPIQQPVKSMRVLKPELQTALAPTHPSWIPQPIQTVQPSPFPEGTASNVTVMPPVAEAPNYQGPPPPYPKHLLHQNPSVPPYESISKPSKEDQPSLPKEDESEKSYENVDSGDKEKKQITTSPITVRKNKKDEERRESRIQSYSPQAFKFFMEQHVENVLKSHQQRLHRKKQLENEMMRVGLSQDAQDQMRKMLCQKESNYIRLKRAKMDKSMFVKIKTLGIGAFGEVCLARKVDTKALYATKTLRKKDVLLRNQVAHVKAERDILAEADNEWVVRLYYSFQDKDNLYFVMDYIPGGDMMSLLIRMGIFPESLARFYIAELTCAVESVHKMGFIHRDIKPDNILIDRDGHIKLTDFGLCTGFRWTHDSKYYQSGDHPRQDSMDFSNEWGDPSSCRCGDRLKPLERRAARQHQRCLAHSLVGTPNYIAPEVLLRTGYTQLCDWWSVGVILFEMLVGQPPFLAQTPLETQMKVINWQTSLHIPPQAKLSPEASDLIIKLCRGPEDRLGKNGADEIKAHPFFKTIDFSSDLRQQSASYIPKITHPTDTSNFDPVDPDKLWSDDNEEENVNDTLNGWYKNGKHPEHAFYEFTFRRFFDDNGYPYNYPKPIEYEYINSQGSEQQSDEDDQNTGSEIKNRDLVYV

B1: myc-tagged full-length human MOB1A wild-type (HEK293) (protein, UniProt Q9H8S9 1-216)
chain: MSFLFSSRSSKTFKPKKNIPEGSHQYELLKHAEATLGSGNLRQAVMLPEGEDLNEWIAVNTVDFFNQINMLYGTITEFCTEASCPVMSAGPRYEYHWADGTNIKKPIKCSAPKYIDYLMTWVQDQLDDETLFPSKIGVPFPKNFMSVAKTILKRLFRVYAHIYHQHFDSVMQLQEEAHLNTSFKHFIFFVQEFNLIDRRELAPLQELIEKLGSKDR
B2: myc-tagged full-length human MOB1A(K104E/K105E) (HEK293) (protein, UniProt Q9H8S9 1-216)
chain: B1 chain with K104E, K105E

Target: T1, HA-tagged wild-type human LATS1 (human)
Test: co-IP; HEK293 cells co-expressing myc-MOB1A variants and HA-tagged kinases; IP with anti-HA (12CA5), blot anti-myc; low-stringency buffer (30 mM HEPES pH 7.4, 20 mM KCl, 1% TX-100)

Binder | binding
B1 | binds
B2 | binds

Reference: article PMC5612953, “Stable MOB1 interaction with Hippo/MST is not essential for development and tissue growth control” (Nature Communications, 2017)
